Experimental data taken from patent EP2791141B1, “Tofacitinib mono-tartrate salt” (ratiopharm GmbH, priority 2011, dated 2013).
≈ marks a conversion by molar mass, not a printed value. Where “and” joins values, the source holds several entries; their conditions need not be identical. Equal values may be shown once. Where a name gives a salt, the structure may show the parent alone. Values belong to the compound of their own block, whether it stands above or below them.

Tests used:
physchem = settings: thermodynamic from solid

solubility pH 4.5 (20 mM sodium acetate (pH 4.5), stirred 1 h at room temperature, filtered, HPLC-UV 290 nm, quantified as Tofacitinib): 6,9 mg/ml
solubility pH 6.8 (50 mM potassium dihydrogen phosphate (pH 6.8), stirred 1 h at room temperature, filtered, HPLC-UV 290 nm, quantified as Tofacitinib): 2,1 mg/ml
solubility at 1 h (physchem; 0.1 N HCl, pH 1.2, simulated gastric fluid, solubility pH 1.2, 0.1 N HCl (pH 1.2), stirred 1 h at room temperature, filtered, HPLC-UV 290 nm, quantified as Tofacitinib): 36.7 mg/mL (≈ 117 mM)
SMILES: C[C@@H]1CCN(C(=O)CC#N)C[C@@H]1N(C)c1ncnc2[nH]ccc12 [TOF base, 3-{(3R,4R)-4-methyl-3-[methyl-(7H-pyrrolo[2,3-d]pyrimidin-4-yl)-amino]-piperidin-1-yl} 3-oxo-propionitrile, reference compound]

solubility pH 1.2 (0.1 N HCl (pH 1.2), stirred 1 h at room temperature, filtered, HPLC-UV 290 nm, quantified as Tofacitinib): 29,4 mg/ml and 29,7 mg/ml
SMILES: C[C@@H]1CCN(C(=O)CC#N)C[C@@H]1N(C)c1ncnc2[nH]ccc12 [TOF-citrate, Tofacitinib citrate, reference compound]

appearance of the mixture in the first solubility experiment (250 mg salt in 2.5 ml solvent (pH 1.2, 4.5, 6.8), clear solution means saturation not yet achieved): clear solutions
solubility at 1 h (physchem; 0.1 n hcl, pH 1.2, simulated gastric fluid): 381 mg/mL (≈ 1220 mM)
solubility at 1 h (physchem; 20 mm sodium acetate, pH 4.5, aqueous buffer): 324 mg/mL (≈ 1040 mM)
SMILES: C[C@@H]1CCN(C(=O)CC#N)C[C@@H]1N(C)c1ncnc2[nH]ccc12 [TOF-tartrate, Tofacitinib mono-tartrate]
